Data from PubChem BioAssay AID248 (DTP/NCI, 2004).
Toxic doses and inconclusive results are not listed. For part of its entries the source gives two or more results. The other results are left out here. An entry can have further records. The records of an entry repeat one measurement across runs, samples, wells, individuals or studies.

Test system: L1210 leukemia ip in BDF1 mice, survival T/C
Assay: NCI In Vivo Anticancer Drug Screen. Data for tumor model L1210 Leukemia (intraperitoneal) in B6D2F1 (BDF1) mice
Conditions: endpoint: mean survival time, higher = longer survival

Nc1nc(N)c2c(Cl)c(CNc3ccc(Cl)c(Cl)c3)ccc2n1
T/C (dose: 200.0 mg/kg/injection, schedule: Q04DX003 (ip), vehicle: water): 92 % of control and 152 % of control

O=NN(CCCl)C(=O)NC1CCCCC1
T/C (dose: 1.0 mg/kg/injection, schedule: Q01DX Z (ip), vehicle: carboxymethylcellulose (CMC)): 114 % of control and 155 % of control | T/C (dose: 31.0 mg/kg/injection, schedule: Q01DX Z (ip), vehicle: carboxymethylcellulose (CMC)): 124 % of control and 158 % of control

CCC1CN1CC1CO1 (centres undefined)
T/C (dose: 22.0 mg/kg/injection, schedule: Q01DX Z (ip), vehicle: saline): 118 % of control and 159 % of control

CCOC(=O)C(NC(=O)C(Cc1ccc(N(CCCl)CCCl)cc1)NC(C)=O)C(C)C (centres undefined)
T/C (dose: 30.0 mg/kg/injection, schedule: Q01DX009 (ip), vehicle: alcohol): 110 % of control and 155 % of control | T/C (dose: 50.0 mg/kg/injection, schedule: Q01DX009 (ip), vehicle: alcohol): 108 % of control and 156 % of control | T/C (dose: 75.0 mg/kg/injection, schedule: Q01DX009 (ip), vehicle: alcohol): 122 % of control and 182 % of control

CCCNC(=O)c1ccc(NC(=O)Nc2ccc(C3=NCCN3)cc2)cc1NC(=O)Nc1ccc(C2=NCCN2)cc1
T/C (dose: 200.0 mg/kg/injection, schedule: Q01DX Z (ip), vehicle: carboxymethylcellulose (CMC)): 111 % of control and 177 % of control

NC(=O)c1n[nH]nc1N1CC[N+](CCCl)=N1
T/C (dose: 100.0 mg/kg/injection, schedule: Q01DX009 (ip), vehicle: saline with Tween-80): 105 % of control and 150 % of control

OC(CN(CCCl)CCCl)C(O)C(O)C(O)CN(CCCl)CCCl (centres undefined)
T/C (dose: 0.5 mg/kg/injection, schedule: Q01DX Z (ip), vehicle: saline): 118 % of control and 158 % of control | T/C (dose: 4.5 mg/kg/injection, schedule: Q01DX Z (ip), vehicle: saline): 119 % of control and 153 % of control

O=C(Nc1ccc(NC(=O)Nc2ccc(C3=NCCN3)cc2)cc1)Nc1ccc(C2=NCCN2)cc1
T/C (dose: 165.0 mg/kg/injection, schedule: Q01DX Z (ip), vehicle: carboxymethylcellulose (CMC)): 106 % of control and 196 % of control | T/C (dose: 250.0 mg/kg/injection, schedule: Q01DX Z (ip), vehicle: carboxymethylcellulose (CMC)): 96 % of control and 161 % of control

CC1(C)CN(Cc2ccc(Cl)cc2)C1=O
T/C (dose: 200.0 mg/kg/injection, schedule: Q04DX002 (ip), vehicle: other): 110 % of control and 161 % of control
